{"source": "PubChem BioAssay (NCI)", "note": "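A five-concentration, 48-hour dose response in 96-well plates underlies each endpoint, interpolated linearly between surrounding concentrations. Here, GI50 denotes the concentration required for 50% inhibition of growth. The concentration for full growth arrest is given as TGI.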"}
{"tested_on": "NCI-H322M lung", "assay": "growth of human tumour cells (NCI), 48 h", "units": {"TGI": "µM", "GI50": "µM"}}
{"molecule": "NS(=O)(=O)c1ccc(NC(=S)/N=C/C2=C(O)c3ccccc3C2=O)cc1", "TGI": "> 100"}
{"molecule": "Clc1cc2c(c(CSc3nc4ccccc4n4cccc34)c1)OCOC2", "GI50": "> 100", "TGI": "> 100"}
{"molecule": "CN1CCOC1c1ccccc1O", "note": "(centres undefined)", "TGI": "> 100"}
{"molecule": "CCOc1ccc(/C=C2\\N=C(c3ccc([N+](=O)[O-])cc3)OC2=O)cc1", "TGI": "> 100"}
{"molecule": "O=C(NCP(=O)(Oc1ccccc1)Oc1ccccc1)OCc1ccccc1", "TGI": "> 100"}
{"molecule": "O=C(Nc1cccc(C(F)(F)F)c1)c1ccc(NC2=C(Cl)C(=O)N(Cc3ccc(Cl)cc3Cl)C2=O)cc1", "GI50": 15.3, "TGI": 32.5}
{"molecule": "O=C1NC(N2CCOCC2)=N/C1=C\\c1ccco1", "TGI": "> 100"}
{"molecule": "COc1cc2c(cc1OC)C(C(c1ccccc1)c1ccccc1)N(C)CC2", "note": "(centres undefined)", "TGI": "> 100"}
{"molecule": "CCN1CCN(c2cc(C)c3cc(NC(=O)c4ccc(OC)c(OC)c4)ccc3n2)CC1", "GI50": "> 66.6", "TGI": "> 100"}
{"molecule": "O=C1c2cc(-c3ccccc3)cnc2S(=O)(=O)N1c1ccc(Br)cc1", "TGI": "> 100"}
{"molecule": "O=C(O)c1ccccc1CC(Cc1ccc2c(c1)CCC2)C(=O)O", "note": "(centres undefined)", "TGI": "> 100"}
{"molecule": "CN(C)CCC(/C=C/c1ccccc1)=N\\Nc1ccccc1", "TGI": 22.8}
{"molecule": "CCCCCC#CCOC(=O)C(=[N+]=[N-])P(=O)(c1ccccc1)c1ccccc1", "TGI": "> 10"}
{"molecule": "Cc1ccc2nc(/C(=C/c3ccc(/C=C(\\NC(=O)c4ccccc4)c4nc5ccc(C)cc5[nH]4)c(C)c3)NC(=O)c3ccccc3)[nH]c2c1", "TGI": 86.9}
{"molecule": "O=c1[nH][nH]c(=O)n1CCCCCCn1c(=O)[nH][nH]c1=O", "TGI": "> 100"}
{"molecule": "OC[C@H]1O[C@@H]2O[C@@](COCc3ccccc3)([C@H](OCc3ccccc3)[C@H]2O)[C@@H]1OCc1ccccc1", "TGI": 26.5}
{"molecule": "Cc1c(O)nc(-n2[nH]c3c(c2=O)CCCC3)[nH]c1=O", "TGI": "> 100"}
{"molecule": "COc1ccc2nc3ccccc3c(NCc3ccc(F)cc3)c2c1", "GI50": 1.75, "TGI": 6.83}
{"molecule": "COC(=O)C(Cc1ccc2c(c1)CCC2)Cc1ccc2c(c1)CCC2", "TGI": "> 100"}
{"molecule": "C/C(=N\\N=C1/C(=O)OC(c2ccccc2)=C1C(=O)c1ccccc1)c1ccc([N+](=O)[O-])cc1", "TGI": "> 100"}
{"molecule": "O=C(O)COc1ccccc1C(=O)Nc1ccccc1", "TGI": "> 100"}
{"molecule": "COCC(OC)C(CC=C(C#N)C#N)OC", "note": "(centres undefined)", "TGI": "> 100"}
{"molecule": "COc1ccc(-c2ccc(=O)oc2C#Cc2cc(OC)c(OC)c(OC)c2)cc1O", "GI50": 1.64, "TGI": "> 100"}
{"molecule": "COc1ccc(C2OC(c3ccncc3)=NN2C)cc1F", "note": "(centres undefined)", "TGI": "> 100"}
{"molecule": "CC1CC2CCCC(O)=C2C(=O)O1", "note": "(centres undefined)", "TGI": "> 100"}
{"molecule": "COc1ccc(-c2nnc3n(C)c(=O)c4ccccc4n23)cc1N", "GI50": 5.93, "TGI": "> 100"}
{"molecule": "C[C@@H]1C[C@@H]([C@@H](CC2CC(=O)NC(=O)C2)OC(=O)CC(=O)c2ccccc2)C(=O)[C@@H](C)C1", "GI50": 0.516, "TGI": 11.1}
{"molecule": "NNC(=O)CNc1cccc(Br)c1", "TGI": "> 100"}
{"molecule": "CC(=O)Nc1ccc(-c2csc(Nc3cccc(-c4csc(C)n4)c3)n2)cc1", "GI50": 0.33, "TGI": 9.5}
{"molecule": "Cc1c2cc[n+](C)c(C)c2cc2c1[nH]c1ccccc12", "TGI": 42.7}
{"molecule": "C=C(C(=O)OCC)C(=O)OCC", "TGI": "> 100"}
{"molecule": "CSc1cc(-c2cccs2)sc1-c1cc(SC)c(-c2sc(-c3sc(-c4cccs4)cc3SC)cc2SC)s1", "TGI": "> 100"}
{"molecule": "C=CCCCCC1CCC2CCC(CCCCC=C)N12", "note": "(centres undefined)", "TGI": 33.7}
{"molecule": "C=CCC1(c2ccc(OC)cc2)C=CC(=O)CC1", "note": "(centres undefined)", "TGI": "> 100"}
{"molecule": "CCOC(=O)c1cccc(N=Nc2nc[nH]c2/C=C/C(=O)OC)c1", "TGI": "> 100"}
{"molecule": "COC(=O)/C(=N\\NC(N)=S)C(C(=O)OC)C(=O)C(=O)Nc1ccc(C)cc1", "note": "(centres undefined)", "TGI": "> 100"}
{"molecule": "CCOC(=O)Nc1cc2c(c(N)n1)N=C(c1ccccc1)CO2", "GI50": 0.537, "TGI": 15.6}
{"molecule": "CNCCOC(=O)/C=C1\\CC[C@H]2[C@@H]([C@@H](O)C(=O)[C@@H]3[C@]2(C)CC[C@H](O)[C@]3(C)C(=O)OC)[C@H]1C", "GI50": 0.388, "TGI": 1.85}
{"molecule": "COc1cc(C(=O)N2CCN(C(=O)c3cc(OC)c(OC)c(OC)c3)C2=S)cc(OC)c1OC", "GI50": 17.4, "TGI": 32.9}
{"molecule": "C/C(C[n+]1ccccc1)=N\\N=C(N)N", "TGI": "> 100"}
{"molecule": "NC1CCN(Cc2ccccc2)CC1", "GI50": "> 100", "TGI": "> 100"}
{"molecule": "N#Cc1nn(-c2cc(=O)[nH]c3ccc(Cl)cc23)c(N)c1C#N", "GI50": "> 100", "TGI": "> 100"}
{"molecule": "N#C/C(=C\\c1ccc2ccccc2c1)C(=O)c1ccccc1", "TGI": "> 100"}
{"molecule": "Cc1ccc(C2=CC(=O)OC(C[P+](c3ccccc3)(c3ccccc3)c3ccccc3)(c3ccccc3)O2)cc1", "note": "(centres undefined)", "TGI": 31.8}
{"molecule": "CC(C)(C)c1cc(C(P(=O)(O)O)P(=O)(O)O)cc(C(C)(C)C)c1O", "TGI": "> 100"}
{"molecule": "O=C(/C(=C/c1ccc(Cl)cc1)c1ccccc1)c1ccccc1", "TGI": 82.7}
{"molecule": "COC(=O)/C(C#N)=C1\\N=NNN1c1ccc(OC)cc1", "TGI": "> 100"}
{"molecule": "Cc1cccc(C)c1NC(=O)C(Cc1c[nH]c2ccccc12)NC(=O)OCc1ccccc1", "note": "(centres undefined)", "TGI": 52}
{"molecule": "Cc1nc(Nc2ccc(Cl)cc2)sc1C(=O)NNC(=S)NN", "TGI": 46.2}
{"molecule": "COc1cc(OC)c2c(=O)cc(-c3ccc(OC)c(OC)c3OC)oc2c1", "TGI": "> 100"}
{"molecule": "O=C1c2ccccc2C(=O)N1n1c(Cc2ccc([N+](=O)[O-])cc2)n[nH]c1=O", "TGI": "> 100"}
{"molecule": "NS(=O)(=O)c1ccc(N=Nc2c(O)c(C(=O)O)cc3ccccc23)cc1", "TGI": "> 100"}
{"molecule": "O=[N+]([O-])c1ccc2occ3c2c1CCC3", "TGI": "> 100"}
{"molecule": "CC(C)C1=Cc2ccc3c(c2C(=O)C1=O)CCCC3(C)C", "TGI": 29.3}
{"molecule": "COc1cc(N=Nc2ccc(O)c3ncccc23)c2ncccc2c1", "GI50": 7.28, "TGI": "> 100"}
{"molecule": "CC1OC(c2ccc3c(OCc4ccccc4)cccc3c2O)CC(OCc2ccccc2)[C@H]1OCc1ccccc1", "note": "(some centres undefined)", "TGI": "> 10"}
{"molecule": "C=C1C(=O)CC2C1CC(=O)/C(C)=C/CCC(C)(O)C2O", "note": "(centres undefined)", "TGI": 75.1}
{"molecule": "Cc1nc(C)c(N2CCN([N+](=O)[O-])CC2)c(=O)[nH]1", "TGI": "> 100"}
{"molecule": "C#CC1/C(=C\\C(=O)OC)CCCC1O", "note": "(centres undefined)", "TGI": "> 100"}
{"molecule": "CCOC(=O)c1c(-c2ccc(O)c(OC)c2)c(C#N)c(=S)n(C2OC(CO)C(O)C(O)C2O)c1-c1ccccc1", "note": "(centres undefined)", "TGI": "> 100"}
{"molecule": "COc1cc(OC)cc(C(=O)CC(=O)c2cc(OC)cc(OC)c2)c1", "TGI": "> 100"}
{"molecule": "COc1ccc2/c(=C/c3ccc(N(C)C)cc3)c3cc(-c4ccccc4)[n+](C)n3c2c1", "TGI": 1.99}
{"molecule": "N=c1c2c(-c3ccccc3)c(-c3ccccc3)n(Cc3ccccc3)c2ncn1C1CCC(O)CC1", "note": "(centres undefined)", "GI50": 0.352, "TGI": 14.6}
{"molecule": "COc1cccc(N2C(Cl)C(=O)C2c2c[nH]c3ccccc23)c1", "note": "(centres undefined)", "TGI": "> 100"}
{"molecule": "CCOC(=O)C1S/C(=N\\C(=N)N[N+](=O)[O-])N=C1C", "note": "(centres undefined)", "TGI": "> 100"}
{"molecule": "CC(C)(C)[Si](C)(C)OCC1OC(n2ccc(=O)[nH]c2=O)C(O[Si](C)(C)C(C)(C)C)/C1=C/C#N", "note": "(centres undefined)", "TGI": "> 100"}
{"molecule": "O=C(NC[C@H](O)CN1CCc2ccccc2C1)c1cc(NC2COC2)ncn1", "GI50": 22.7, "TGI": "> 100"}
{"molecule": "S=C1NC2=C(CSC/C2=C\\c2cccc(Br)c2)C(c2cccc(Br)c2)N1", "note": "(centres undefined)", "TGI": "> 100"}
{"molecule": "N[C@@H](Cc1ccccc1)C(=O)N1CCC[C@@H]1P(=O)(Oc1ccccc1)Oc1ccccc1", "TGI": "> 100"}
{"molecule": "Cc1cc(/N=C/c2ccc(N(C)C)cc2)n(-c2ccccc2)n1", "TGI": "> 100"}
{"molecule": "COc1ccc2c(c1OCC(=O)O)C(=O)C(CCC(=O)O)CC2", "note": "(centres undefined)", "TGI": "> 100"}
{"molecule": "CCOS(C)(=O)=O", "TGI": "> 100"}
{"molecule": "Nc1ncn([C@@H]2O[C@H](CO)[C@@H](O)[C@H]2O)c(=O)n1", "GI50": 0.964, "TGI": 69.7}
{"molecule": "CC12CCC(=O)C[C@H]1CCC(OC=O)C2Br", "note": "(some centres undefined)", "TGI": "> 100"}
{"molecule": "N#CNC(=NCc1ccccc1)N(Cc1ccccc1)Cc1ccccc1", "TGI": "> 31.6"}
{"molecule": "C=C1CC(C#N)(C#N)[C@H]2C3CCCC3C[C@@H]12", "note": "(some centres undefined) (tested in a mixture with another compound)", "TGI": "> 100"}
{"molecule": "COC(=O)C(=Cc1cc(OC)c(OC)c(OC)c1-c1cc2c(cc1C1(C)OCCS1)OCO2)C(=O)OC", "note": "(centres undefined)", "TGI": "> 100"}
{"molecule": "O=C(Cc1ccc(F)c(Cl)c1)Nc1cc(C2(C(F)(F)F)CC2)nn1CC1CCCCC1", "GI50": 4.06, "TGI": "> 15"}
{"molecule": "Oc1cc(Cl)cc2cccnc12", "TGI": "> 100"}
{"molecule": "Cc1ccc(S(=O)(=O)n2c3c(c4ccccc42)CCN2C[C@H]([C@H](C)Br)CC[C@@H]32)cc1", "TGI": "> 100"}
{"molecule": "NC(N)=N/N=C/c1c(Cl)cccc1Cl", "GI50": 20.5, "TGI": 63.4}
{"molecule": "CN(C)C(=S)/N=c1\\sn(C)/c(=N\\C(=S)N(C)C)n1C", "TGI": "> 100"}
{"molecule": "CC(=O)NC1C(OCc2ccccc2)OC(CO)C(O)C1OCC(=O)N[C@@H](C)C(=O)N[C@H](CCC(=O)NCCCNc1c2ccccc2nc2cccc([N+](=O)[O-])c12)C(N)=O", "note": "(some centres undefined)", "TGI": 0.629}
{"molecule": "Cc1nnc(Nc2ccc(NC(=O)Nc3ccc(Cl)cc3)cc2)c2ccccc12", "GI50": 3.31, "TGI": 12.5}
{"molecule": "C=CCc1cc(-c2nc(=S)[nH][nH]2)ccc1N=NNc1ccc(C(=O)O)cc1", "TGI": "> 100"}
{"molecule": "Cc1c2n(c(=O)[nH]c1=O)C1OC(CO)C(N=[N+]=[N-])C1O2", "note": "(centres undefined)", "TGI": "> 100"}
{"molecule": "O=C(CCn1ccnc1[N+](=O)[O-])NCCCn1ccnc1[N+](=O)[O-]", "TGI": "> 100"}
{"molecule": "COC(=O)c1c2c(c(C)[n+]([O-])c1C)C(=O)C=C(NCc1ccc(F)cc1)C2=O", "GI50": 0.578, "TGI": 2.27}
{"molecule": "CCCCCCCCCCCC[S+](C)C", "TGI": 27}
{"molecule": "Cc1ccccc1C(=O)c1cc(O)ccc1O", "TGI": "> 100"}
{"molecule": "C=CCn1c(=O)c(C(=O)Nc2nc(C34CC5CC(CC(C5)C3)C4)cs2)c(O)c2ccccc21", "TGI": "> 100"}
{"molecule": "Clc1ccc(-c2nnc3sc4nc5ccccc5c-4nn23)c(Cl)c1", "TGI": "> 100"}
{"molecule": "BrC(=C(c1ccc(OC2CCCCO2)cc1)c1ccc(OC2CCCCO2)cc1)c1ccccc1", "note": "(centres undefined)", "TGI": "> 100"}
